For 57 compounds, TGI and GI50 results are on record in PubChem BioAssay (NCI).

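A five-concentration, 48-hour dose response in 96-well plates underlies each endpoint, interpolated linearly between surrounding concentrations. GI50 = concentration required for 50% inhibition of growth. TGI: total growth inhibition.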 Square brackets hold non-standard residues; d marks the D form. Peptide text beside a SMILES is read from it. ξ: configuration not given here. ξLac(3-iPr) = CC(C)CC(O)C(=O)O; NMeV = CN[CH](C(=O)O)C(C)C; NMeA = CN[CH](C)C(=O)O; βAla = NCCC(=O)O

The test deals with NCI-H322M lung. Briefly: NCI anticancer screen, dose series, 48 h.
`C=C(C(=C)N1N=NC2C3CCC(C3)C21)N1N=NC2C3CCC(C3)C21` (configuration not stated) showed a TGI greater than 100 µM.
With `Clc1ccc(C[P+]2(c3ccccc3)CCCCC2)cc1`, the TGI is greater than 100 µM.
On to `CN(CC(=O)Nc1nc2ccccc2[nH]1)S(=O)(=O)c1ccc(Cl)cc1`, for which the GI50 was greater than 100 µM and the TGI is greater than 100 µM.
`CC(=O)OC[C@@]12Cc3ccc(C)c(O)c3[C@]1(C)[C@@H](OC(C)=O)[C@]1(O)[C@H]([C@@H](OC(=O)c3ccccc3)[C@@H](C)[C@H]1OC(C)=O)[C@H]2OC(C)=O` displayed a TGI greater than 50 µM.
In the case of `O=C(N/N=C/c1ccc([N+](=O)[O-])cc1)Nc1ccc(Br)cc1`, the TGI is greater than 100 µM.
As for `O=C(Nc1cccc(Cl)c1)c1cccc(NC2=C(Cl)C(=O)N(Cc3ccccc3)C2=O)c1`, the GI50 is 24.1 µM and the TGI is greater than 100 µM.
Take `O=c1cc(-c2ccco2)[nH]c2cc3c(cc12)OCO3`: the TGI is greater than 100 µM.
Turning to `O=C1OC(C2(O)OC(=O)c3ccccc32)c2ccccc21` (configuration not stated), the TGI is greater than 100 µM.
`C=C1C(OC(=O)/C=C/c2ccccc2)CC(OC(C)=O)C2(C)C1CC1CC(OC(C)=O)C(C)=C(C(OC(C)=O)C2OC(C)=O)C1(C)C` (configuration not stated) gave a TGI greater than 100 µM.
For `NS(=O)(=O)CC1CC[CH-]CC1.[Cl-].[Cl-].[Cl-].[Cl-].[Cl-].[Sb+5].c1ccncc1`, the GI50 is greater than 100 µM and the TGI was greater than 100 µM.
Take `CC(C)(C)OC(=O)NCCNCCNc1ccccc1`: the TGI is greater than 100 µM.
For `CSc1nc2c(c(N3CCOCC3)n1)C(O)n1c(nc3ccccc31)S2` (configuration not stated), the TGI was greater than 100 µM.
`CSC(=S)OC1CC(n2cnc3c(NC(=O)c4ccccc4)ncnc32)OC1CO[Si](C)(C)C(C)(C)C` (configuration not stated) had a TGI greater than 56.2 µM.
`CC1CN(c2cc3c(cc2F)c(=O)c(C(=O)O)cn3-c2ccc(F)cn2)CC(C)N1` (configuration not stated) gave a TGI greater than 100 µM.
Consider `CCCCNC(=O)C1C2CCC(O2)C1C(=O)O` (configuration not stated), for which the TGI is greater than 100 µM.
Turning to `COC(=O)c1cc2c3ccccc3[nH]c2c2sccc12`, the GI50 is 38.2 µM and the TGI is greater than 100 µM.
With `CCc1cc(CCC(=O)Nc2ccccc2[N+](=O)[O-])[nH]c(=S)n1`, the TGI was greater than 100 µM.
Consider `CN(C(=O)C1=CCC2(CC1)OCCO2)c1ccccc1I`, for which the TGI is greater than 100 µM.
Take `Fc1cccc(-n2ccc(-c3ccccc3)nc2=S)c1`: the GI50 was 18.8 µM and the TGI came out at 36.3 µM.
`CC(=O)OCC(C)(COC(C)=O)N1C(=O)C2C3c4ccccc4C(c4ccccc43)C2C1=O` (configuration not stated): the TGI is greater than 100 µM.
On to `CCOC(=O)c1cc(Br)c(-c2cc(C)no2)[nH]1`, for which the TGI was greater than 100 µM.
In the case of `CCOC(=O)C#Cc1c(C(=O)OCC)nnn1Cc1ccc([N+](=O)[O-])cc1`, the GI50 was 15.2 µM and the TGI stood at 30.3 µM.
As to `OCCNc1nc(Nc2ccc(Cl)c(Cl)c2)nc2ccccc12`, the GI50 is 12.3 µM and the TGI is 25.5 µM.
Regarding `COC(=O)C1=C(C)NC(C)=C(C(=O)OC)C1c1ccc(N=O)cc1`, the TGI was greater than 100 µM.
The same measure, in the same setting: with `COc1ccc2c(c1)C(=O)/C(=C/c1ccc([N+](=O)[O-])o1)O2` the figure was greater than 22.9 µM; with `OCc1cc2ccncc2c2c1[nH]c1ccccc12`, 34.5 µM; with `O=C1NNC2NC(=O)C3(NN2C1=O)c1ccccc1-c1ccccc13` (configuration not stated), greater than 100 µM.
On to `CN1CCN(c2ccc(NC(=O)c3cncnc3Nc3ccc(OCc4ccccn4)c(Cl)c3)cc2)CC1`, for which the GI50 is 4.14 µM and the TGI was 9.19 µM.
In turn, `O=C1c2ccccc2C2C1C(c1ccccc1)C1(Cc3ccccc3C1=O)C2c1ccccc1` (configuration not stated) yielded a TGI greater than 100 µM.
As to `O=[N+]([O-])c1cc(C(F)(F)F)ccc1Sc1ccc(C(F)(F)F)cc1[N+](=O)[O-]`, the GI50 is 67.6 µM and the TGI was greater than 100 µM.
The compound `C=C1C(=O)OC2C3C(=C)[C@@H](OC(C)=O)CC3C(C)=CC(OC(=O)C(C)(OC(C)=O)C(C)OC(C)=O)[C@@H]12` (some centres not stated) displayed a TGI greater than 100 µM.
Still for that read-out and setting: with `N#CC(C#N)N=Nc1ccc(-c2nc3ccccc3o2)cc1` the figure was 58.9 µM; with `CN=C(N)c1ccc(N=C(N)c2ccc(C(N)=Nc3ccc(C(N)=NC)cc3)cc2)cc1`, greater than 100 µM; with `O=C1c2ccccc2C(=O)c2c(Nc3cc4c5c(ccc6c7ccc8c9c(cc(Nc%10cccc%11c%10C(=O)c%10ccccc%10C%11=O)c(c3c56)c97)-c3ccccc3C8=O)C(=O)c3ccccc3-4)cccc21`, greater than 100 µM.
`CCN(CC)C1C(=O)NC1C#Cc1ccccc1` (configuration not stated) displayed a TGI greater than 100 µM.
For the compound `CC(=[N-])N1CCC[C@@H](Nc2c3ccccc3nc3ccccc23)C1.[Cl][Pt].[NH-]CCC[NH-]`, the GI50 was 1.25 µM and the TGI was greater than 42.9 µM.
`NC1=NN(c2ccccc2)C(=O)C1C(=O)C(=O)Nc1nccs1` (configuration not stated) came in with a TGI greater than 100 µM.
With `C/C(=C\c1cc(C(F)(F)F)n(-c2ccc(N)cc2)n1)[C@@H]1C[C@@H]2O[C@]2(C)CCC[C@H](C)[C@H](O)[C@@H](C)C(=O)C(C)(C)[C@@H](O)CC(=O)O1`, the GI50 was 0.0474 µM and the TGI was greater than 11.1 µM.
For `O=C1c2ccccc2C(=O)C1C(c1ccc(F)cc1)C1C(=O)c2ccccc2C1=O`, the TGI was greater than 100 µM.
For the compound `CCCCCCCCCNC(=O)/C=C/c1ccc(O)c(O)c1`, the GI50 was 24.3 µM and the TGI turned out to be 52.5 µM.
For the compound `COc1ccc(/C=C2\CCC(CCN(C)C)(C3=CCCC3)C2=O)cc1Br` (configuration not stated), the TGI came to 21.5 µM.
The same measure, in the same setting: in the case of `Cc1ccc(C(=O)/C=C/c2cccc([N+](=O)[O-])c2)cc1` it was greater than 100 µM.
Compound `CC(=O)OCC1OC(O[C@@H]2C[C@H]3C(C)(C)[C@@H](OC(C)=O)CC[C@]3(C)[C@H]3CC[C@]45C[C@]4(CC[C@H]5[C@@H](C)C[C@@H](O)[C@H](O)C(C)(C)F)[C@@]32C)C(O)C(O)C1O` (some centres not stated) had a TGI of 3.05 µM.
In turn, `CC(=O)c1c(CO[N+](=O)[O-])n([O-])c2ccccc2[n+]1=O` gave a TGI greater than 100 µM.
For `C=C1C(=O)O[C@H]2[C@H]1CC/C(COC(=O)C(C)c1ccc(CC(C)C)cc1)=C\CC[C@@]1(C)O[C@@H]21` (some centres not stated), the GI50 was 1.7 µM and the TGI amounted to 3.68 µM.
In the case of `O=C(Nc1cccc(-c2ccc(Cl)c(C(F)(F)F)c2)c1)C1CCN(Cc2cccc3cccnc23)CC1`, the GI50 was 1.68 µM and the TGI is 3.07 µM.
As to `CO/N=C\c1cc(O)c(O)c(/C=N/OC)c1`, the TGI is greater than 100 µM.
On the same count and under the same terms, with `CCN(CC)C(=S)SC(C(=O)Nc1nnc(-c2ccccc2)o1)c1ccccc1` (configuration not stated) the figure was 56.1 µM; with `CCN(CC)Cc1ccc(C(=S)Nc2ccc(C)cc2)s1`, 37.6 µM.
For the compound `Cc1cn2c(/C=N/N=C(N)N)c(-c3ccccn3)nc2s1`, the GI50 is 16.8 µM and the TGI was found to be 32.6 µM.
Consider `CN(C)c1ccc(C2CC(c3ccc4ccccc4c3O)=NN2c2ccc([N+](=O)[O-])cc2[N+](=O)[O-])cc1` (configuration not stated), for which the TGI is greater than 100 µM.
Consider `COc1ccc2oc(C(=O)O)c3c2c1CCC3CCC(=O)O` (configuration not stated), for which the TGI is greater than 100 µM.
The compound `CCC(C)C1NC(=O)C2CCCN2C(=O)C(CC(C)C)OC(=O)CCNC(=O)C(C)N(C)C(=O)C(C(C)C)N(C)C1=O` (configuration not stated) (cyclo([ξLac(3-iPr)]PI[NMeV][NMeA][βAla]); configuration not given here) registered a TGI greater than 81.2 µM.
As for `CN(C)CCNC(=O)Cn1cnc2cccc([N+](=O)[O-])c2c1=O`, the TGI is greater than 100 µM.
As for `Cc1ccc(C2COc3cc(O)c(O)cc3C2)cc1` (configuration not stated), the TGI is 187 µM.
`O=C(CCc1ccccc1)n1cccc1CO` showed a TGI greater than 100 µM.
The compound `CCCCCCCCCCCCCCCCOP(=O)(O)OCC(NC(C)=O)C(=O)O` (configuration not stated) displayed a TGI greater than 100 µM.
